Measured values published in publication PMC4336329 (PLoS ONE, 2015).
Out of some 310,000 compounds screened, about 14,000 (4.5%) showed an effect of 50% or more. Effects have a minus sign here. Some of the results follow.

These compounds were tested against human ether-à-go-go-related gene (hERG) potassium channel (human, UniProt Q12809) (assay: primary screen, population patch clamp on CHO cells stably expressing hERG).
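Further: peak tail current of the secondary pulse compared with the same well before compound.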

Sequence of human ether-à-go-go-related gene (hERG) potassium channel (Q12809 whole entry, looked up): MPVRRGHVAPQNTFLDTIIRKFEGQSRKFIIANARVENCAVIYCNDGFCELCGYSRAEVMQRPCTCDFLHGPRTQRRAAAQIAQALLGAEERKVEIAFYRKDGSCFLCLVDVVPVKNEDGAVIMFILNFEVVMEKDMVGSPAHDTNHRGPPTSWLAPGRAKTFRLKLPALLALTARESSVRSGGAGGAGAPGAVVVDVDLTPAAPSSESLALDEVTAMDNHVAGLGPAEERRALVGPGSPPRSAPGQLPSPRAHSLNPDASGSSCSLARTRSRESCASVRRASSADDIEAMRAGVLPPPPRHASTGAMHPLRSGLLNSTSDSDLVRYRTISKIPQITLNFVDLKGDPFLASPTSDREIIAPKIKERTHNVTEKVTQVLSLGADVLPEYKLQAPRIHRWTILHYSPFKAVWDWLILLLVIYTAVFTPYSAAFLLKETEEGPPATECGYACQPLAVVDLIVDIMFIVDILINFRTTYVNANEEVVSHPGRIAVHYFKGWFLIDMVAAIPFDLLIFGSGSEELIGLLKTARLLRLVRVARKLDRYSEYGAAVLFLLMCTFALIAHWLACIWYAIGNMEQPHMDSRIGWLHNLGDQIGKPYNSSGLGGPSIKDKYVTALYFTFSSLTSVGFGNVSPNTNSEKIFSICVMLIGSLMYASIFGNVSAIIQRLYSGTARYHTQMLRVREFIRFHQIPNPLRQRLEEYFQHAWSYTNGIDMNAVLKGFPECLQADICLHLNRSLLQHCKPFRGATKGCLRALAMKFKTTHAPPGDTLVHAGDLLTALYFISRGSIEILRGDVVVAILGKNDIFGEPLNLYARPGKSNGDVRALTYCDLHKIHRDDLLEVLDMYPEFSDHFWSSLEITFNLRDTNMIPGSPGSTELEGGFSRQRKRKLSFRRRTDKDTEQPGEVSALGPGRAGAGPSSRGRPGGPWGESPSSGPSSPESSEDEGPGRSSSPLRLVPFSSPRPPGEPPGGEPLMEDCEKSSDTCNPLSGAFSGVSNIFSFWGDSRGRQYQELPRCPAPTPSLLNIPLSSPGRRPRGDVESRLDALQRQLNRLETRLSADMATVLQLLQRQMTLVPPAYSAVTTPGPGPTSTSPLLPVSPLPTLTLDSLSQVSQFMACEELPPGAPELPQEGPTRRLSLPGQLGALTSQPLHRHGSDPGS

| SMILES | hERG current change (%, negative = inhibition) at 10uM [%] |
| --- | --- |
| O=C(CSC1=NS(=O)(=O)c2ccccc2N1)N1CCCCC1 | 2.67 |
| CCOc1ccc(N(CC(=O)NCc2ccc(OC)cc2)S(=O)(=O)c2c(C)[nH]c(=O)[nH]c2=O)cc1 | 19.4 |
| CC(NS(=O)(=O)c1ccccc1)c1n[nH]c(=S)n1-c1ccccc1 (centres unmarked) | -21.3 |
| Cc1cc(C)n(CCN(C)c2nc3nonc3nc2NC2CC2)n1 | 18.8 |
| O=C(CSS(=O)(=O)[O-])N1CCN(C(=O)c2ccoc2)CC1.[Na+] | 19.6 |
| O=C1C2N=NN(CC(=O)N3N=C(c4cccc5ccccc45)CC3c3ccccc3)C2C(=O)N1c1ccccc1 (centres unmarked) | -2.53 |
| COc1ccc(OC)c(NC2=NCCCS2)c1 | 9.99 |
| CCc1ccc(N2CC34C=CC(O3)C(C(=O)OC(C)C)C4C2=O)cc1 (centres unmarked) | 10.9 |
| O=S(N1CCCCCC1)C12CC3CC(CC(C3)C1)C2 (centres unmarked) | -10.6 |
| COc1cccc(NC(=S)NC2CC3CCCC(C2)N3C2CCCC2)c1 (centres unmarked) | -33.6 |
| CC1(C)C2CCC1(C)C([NH2+]c1ccccc1)C2.[Cl-] (centres unmarked) | 15.2 |
| Clc1cc2c(c(Cn3cnc4ccccc43)c1)OCOC2 | 11.2 |
| Cc1ccc(NC(=O)CS(=O)(=O)c2cn(C)c3ccccc23)c(C)c1 | 6.26 |
| Cc1nc2scc(-c3ccccc3)c2c(=O)n1/N=C/c1ccco1 | 2.25 |
| O=S(=O)(c1ccccc1)N1CCC(O)(CSc2ccc(F)cc2)CC1 | 15.7 |
| CS(=O)(=O)O.c1ccc2c(c1)CCc1c(-c3ccncc3)n[nH]c1-2 | -3.06 |
| Cc1onc(-c2ccccc2Cl)c1C(=O)N1CCN(C=O)CC1 | 27.9 |
| COc1ccccc1CNCc1cccs1.Cl | -2.91 |
| CC(=O)Nc1ccc(NC(=O)N(c2ccccc2)c2ccccc2)cc1 | 14.7 |
| CC(CNS(=O)(=O)c1ccc(Br)cc1)CN(C)C (centres unmarked) | -31.8 |

| SMILES | hERG current change (%, negative = inhibition) at 10uM [%] |
| --- | --- |
| Cc1c(NC(=O)c2cccc(NS(C)(=O)=O)c2)c(=O)n(-c2ccccc2)n1C | 4.18 |
| O=c1cc(N2CCN(c3ccccc3)CC2)[nH]c(=O)n1C1CCCCC1 | 4.56 |
| CCc1ccc(OCCCC(=O)Nc2nnc(C3CCCO3)s2)cc1 (centres unmarked) | 17.9 |
| CN(C)S(=O)(=O)c1ccc2c(c1)C(CC(=O)O)NC2=O (centres unmarked) | 6.72 |
| O=C(CSc1nnc2c(Cl)cc(Cl)cn12)N1CCN(S(=O)(=O)c2ccccc2)CC1 | -19.1 |
| O=C(Cc1ccccc1F)Nc1nc(-c2cccnc2)cs1 | 37 |
| COc1ccc(NC(=O)CSc2nnc(-c3ccncc3)o2)c(OC)c1 | 9.98 |
| O=C(/C=C/c1ccc(O)c(O)c1)c1ccc(S(=O)(=O)N2CCCCCC2)cc1 | 27.1 |
| CCC(=O)Nc1cccc(-c2ccc(N3CCCCC3)nn2)c1 | 0.24 |
| CCCCc1nnc(NC(=O)Cc2ccc(OC)c(S(=O)(=O)N3CCOCC3)c2)s1 | 5.43 |
| O=C(/C=N/O)Nc1ccccc1 | -6.97 |
| Cc1cccc(C)c1NC(=O)CNC(=O)Cc1ccc(Br)cc1 | 20.9 |
| COc1cc2cc(CN(CCO)S(=O)(=O)c3ccccc3Cl)c(=O)[nH]c2cc1OC | 0.98 |
| COc1ccc(NC(=O)C2=C(C)C(=O)OC23CCC(C)CC3)cc1Cl (centres unmarked) | 14 |
| CCOc1ccc2c(c1)-c1c(ssc1=S)C(C)(C)N2C | -3.7 |
| COC(=O)c1cc2sccc2n1CC(=O)Nc1cc(OC)cc(OC)c1 | 7.97 |
| CC(/C=N/NC(=O)c1cc(C2CC2)[nH]n1)=C\c1ccccc1 | 13.8 |
| COc1cc(NC(=O)C(C)C)ccc1NC(=O)c1ccco1 | 4.84 |
| COc1cc(/C=C2\SC(=S)N(CCC(=O)NC3CCCC3)C2=O)cc(OC)c1OC | 1.81 |
| CC(C(=O)NNS(=O)(=O)c1cccc(C(F)(F)F)c1)n1nnc(N2CCOCC2)n1 (centres unmarked) | -38.4 |

| SMILES | hERG current change (%, negative = inhibition) at 10uM [%] |
| --- | --- |
| CCOc1ccc(/C=N/NC(=O)c2c(-c3ccccc3)noc2C)cc1 | -3.67 |
| Cc1ccc2[nH]c(=O)c(C(c3nnnn3CC3CCCO3)N3CCOCC3)cc2c1 (centres unmarked) | 7.56 |
| COc1ccc(NC(=O)CSCC(=O)NCc2ccco2)cc1 | 1.54 |
| CCNc1nc2c(c(=O)[nH]c(=O)n2C)n1CCCc1ccccc1 | 8.7 |
| CCS(=O)(=O)c1ccc2c(c1)N(S(=O)(=O)c1ccccc1)CC(C(=O)O)O2 (centres unmarked) | -0.5 |
| COc1cc(O)sc1C=Nc1ccc(Cl)cc1 | 4.72 |
| O=C(NCCc1csc(-c2ccc(Cl)cc2)n1)c1ccco1 | -15 |
| CNC(=O)c1c(N)sc2c1CCCCC2 | -3.16 |
| O=C(Nc1cccc(F)c1)NC1CCCCCCC1 | 7.75 |
| Cc1occc1-c1nnc(SCC(=O)c2ccc(F)cc2)n1Cc1ccco1 | -42.6 |
| Cc1cc(C)n(-c2ccc(Cl)c(Cl)c2)n1 | 7.55 |
| C=CCNc1nc(Nc2ccc(OC)cc2OC)nc(OCC)n1 | 2.07 |
| CC(=O)Nc1cccc(NC(=S)Nc2cccc(Cl)c2Cl)c1 | 19.3 |
| COc1ccc(OC)c(-n2c(C)cc(C=O)c2C)c1 | 14.9 |
| CC(NC(=O)c1ccccc1NC(=O)CSc1nnnn1C)c1ccccc1 (centres unmarked) | -8.38 |
| Cc1cc(/C=N/NC(N)=S)c(C)n1-c1cccc(Cl)c1 | -6.12 |
| CCOc1ccccc1NC(=O)CN1C(=O)COc2ccccc21 | 4.95 |
| CCOc1ccc(/C=N/NC(=O)c2nnn(-c3nonc3N)c2CN(C)C2CCCCC2)cc1 | 5.09 |
| CN(c1ccccc1)S(=O)(=O)c1cccc(C(=O)NCCc2ccc(O)c(O)c2)c1 | -16.3 |
